Consider 46 molecules from article PMC4336329 (PLoS ONE, 2015).

The whole screen tested about 310,000 compounds, of which about 14,000 (4.5%) showed an effect of 50% or more. The effect is printed as a negative number. Some of the results follow.
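Further: peak tail current of the secondary pulse compared with the same well before compound.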

In the assay the target is human ether-à-go-go-related gene (hERG) potassium channel (human, UniProt Q12809). In words: primary screen, population patch clamp on CHO cells stably expressing hERG.
human ether-à-go-go-related gene (hERG) potassium channel, sequence (Q12809 whole entry, looked up): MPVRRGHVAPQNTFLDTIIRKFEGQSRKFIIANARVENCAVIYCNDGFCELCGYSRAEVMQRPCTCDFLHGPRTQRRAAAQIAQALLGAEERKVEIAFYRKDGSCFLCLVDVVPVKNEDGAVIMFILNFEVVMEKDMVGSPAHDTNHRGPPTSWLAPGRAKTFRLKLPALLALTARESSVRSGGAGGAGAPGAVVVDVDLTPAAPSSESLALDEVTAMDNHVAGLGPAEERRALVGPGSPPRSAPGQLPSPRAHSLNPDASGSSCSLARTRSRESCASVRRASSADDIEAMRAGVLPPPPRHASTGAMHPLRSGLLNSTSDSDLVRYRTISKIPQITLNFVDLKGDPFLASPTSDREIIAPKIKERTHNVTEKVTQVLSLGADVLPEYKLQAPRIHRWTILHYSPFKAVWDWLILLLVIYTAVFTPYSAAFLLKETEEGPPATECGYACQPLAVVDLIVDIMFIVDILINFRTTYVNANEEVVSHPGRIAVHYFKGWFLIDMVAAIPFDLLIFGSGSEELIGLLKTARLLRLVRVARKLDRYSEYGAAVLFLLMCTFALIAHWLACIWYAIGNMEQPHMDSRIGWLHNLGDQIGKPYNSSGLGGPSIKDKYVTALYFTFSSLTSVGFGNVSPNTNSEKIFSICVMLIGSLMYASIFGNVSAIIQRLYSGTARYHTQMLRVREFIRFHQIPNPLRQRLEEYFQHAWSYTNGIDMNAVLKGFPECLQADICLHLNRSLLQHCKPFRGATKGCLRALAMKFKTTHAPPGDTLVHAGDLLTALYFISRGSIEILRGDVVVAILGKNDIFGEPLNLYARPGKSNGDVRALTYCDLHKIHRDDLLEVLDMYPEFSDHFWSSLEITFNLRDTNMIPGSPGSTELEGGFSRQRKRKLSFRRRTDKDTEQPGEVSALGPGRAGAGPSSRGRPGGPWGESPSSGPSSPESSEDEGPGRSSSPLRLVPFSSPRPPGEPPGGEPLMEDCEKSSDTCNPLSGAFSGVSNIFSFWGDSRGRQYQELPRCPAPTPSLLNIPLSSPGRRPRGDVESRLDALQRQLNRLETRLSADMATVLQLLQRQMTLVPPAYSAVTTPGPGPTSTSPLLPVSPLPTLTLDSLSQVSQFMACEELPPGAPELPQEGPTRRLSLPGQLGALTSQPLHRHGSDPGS
As for `CCN(CC)CCn1c(=S)[nH]c2ncccc2c1=O`, the “hERG current change (%, negative = inhibition) at 10uM” value was -20.5%.

Take `CCOC(=O)C(NC(=O)NCc1ccc(OC)cc1)(OCC)C(F)(F)F` (stereo not shown): the “hERG current change (%, negative = inhibition) at 10uM” value is reported as 15.1%.

For `CC1N(O)C(C)(C)C(c2ccccc2)=[N+]1[O-]` (stereo not shown), the “hERG current change (%, negative = inhibition) at 10uM” value is reported as -2.8%. The value for `Clc1ccc(-c2cccs2)nn1` was 2.2%; that for `CCOc1ccc(CC(=O)N2CCN=C2SC)cc1` was 14.8%; that for `Cn1c(N/N=C2\CCCc3ccccc32)nc2c1c(=O)n(Cc1ccccc1)c(=O)n2C` was -1.03%. For `CC(C)C1N(C(=O)CN2CCCC2)CCN1S(=O)(=O)c1ccccc1` (stereo not shown) the value was 11%. For `Cn1c(CS(=O)Cc2c(Cl)cccc2Cl)nnc1SCc1c(Cl)cccc1Cl` (stereo not shown), the “hERG current change (%, negative = inhibition) at 10uM” value is on record as -45.1%. For `CCn1c(=N)c(S(=O)(=O)c2ccccc2)cc2c(=O)n3ccccc3nc21` the value was -13.5%. On to `O=C(NC(NC(=S)Nc1ccccc1Cl)C(Cl)(Cl)Cl)c1cccc(Cl)c1` (stereo not shown), for which the “hERG current change (%, negative = inhibition) at 10uM” value is on record as -0.367%. On to `CC(=O)c1cccc(NC(=O)c2cc(-c3cccs3)on2)c1`, for which the “hERG current change (%, negative = inhibition) at 10uM” value was found to be 27%. For `CN1CCN(CCCNC(=O)C2CC(=O)N(C3CCCCC3)C2)CC1` (stereo not shown) the value was 6.41%. For `COc1ccccc1NC(=O)c1ccccc1NC(=O)c1cc(Cl)ccc1NC(=O)c1ccco1` the value was 2.97%; for `CC(OC(=O)CCN1C(=O)C2CC=CCC2C1=O)C(=O)Nc1cccc(Cl)c1` (stereo not shown), -13.9%. For `CC(C)C(=O)c1cn(Cc2ccc(C#N)cc2)c2ccccc12` the value was -75.6%; for `CC1CCN(CCCNC(=O)c2ccc3c(=O)n(CCc4ccccc4)c(=O)[nH]c3c2)CC1`, -20.4%. Regarding `Cc1nc2ccccc2c2oc(C(=O)NCc3ccccn3)cc12`, the “hERG current change (%, negative = inhibition) at 10uM” value is on record as -31.2%. The value for `Cc1ccc(NS(=O)(=O)N(C)C)cc1` was 5.27%.

Regarding `Cc1ccsc1C1C(C#N)=C(N)OC2=C1C(=O)CCC2` (stereo not shown), the “hERG current change (%, negative = inhibition) at 10uM” value is given as -2.2%. For the molecule `Cc1cccc(C(=O)NC2CCCCCCC2)c1`, the “hERG current change (%, negative = inhibition) at 10uM” value was -11.8%. Regarding `CCOC(=O)N1CCC(NCCNC(=O)c2cccs2)CC1`, the “hERG current change (%, negative = inhibition) at 10uM” value amounted to 3.91%. The value for `Cc1cc(Cl)nc(Cl)c1C(=O)NC(=O)NCCC(C)C` was 6.83%; that for `COc1ccc(-n2nnnc2SCC(=O)Nc2ccc(OC)cc2OC)cc1` was 15.8%. For `COc1ccccc1S(=O)(=O)Cc1ccc(C(=O)NCCN2CCCC2)o1` the value was -8.12%; for `CC1Sc2ccc(S(=O)(=O)CCC(=O)NC3CCCC(C)C3C)cc2NC1=O` (stereo not shown), 16.4%; for `O=C(NC1CCCCC1)C(c1ccco1)N(Cc1cccnc1)C(=O)C1COc2ccccc2O1` (stereo not shown), -18.8%. For `CCOC(=O)c1cccc(NC(=O)c2c(NCc3ccccc3)[nH]c(=O)[nH]c2=O)c1`, the “hERG current change (%, negative = inhibition) at 10uM” value is recorded as -0.388%. In the case of `CCN(CC)CCn1c(=S)[nH]c2ccc(Br)cc2c1=O`, the “hERG current change (%, negative = inhibition) at 10uM” value is on record as -66.7%. The value for `CCOC(=O)NCCc1ccc(OC)cc1` was 8.6%; that for `CCNC(=S)Nc1nc2c(cc1C(=O)OCC)CCCC2` was 17.7%; that for `Cc1ccc(NS(=O)(=O)c2ccc3c(c2)CC(=O)N3)cc1C` was 7.62%. The value for `COc1ccc(CCN=C(N)NS(=O)(=O)c2cccs2)cc1OC` was 12%; that for `Cc1cccc2cc(CNCc3ccccc3)c(Cl)nc12` was 10.1%; that for `C[C@H]1CN=C(N(C)C)N1CCC1CCCCC1` was -2.84%. The value for `CC(C)C(NS(=O)(=O)c1cccs1)C(=O)NCCCN1CCCCCC1` (stereo not shown) was 19.4%; that for `COc1ccc(Oc2ccc(C(F)(F)F)cc2NC(=O)c2ccc(OC)cc2)cc1` was 12.5%. Turning to `CC(C)c1cccc(C(C)C)c1NC(=S)Nc1cccc(Cl)c1`, the “hERG current change (%, negative = inhibition) at 10uM” value is recorded as 5.01%.

Regarding `Cc1cc(NC(=O)Cn2c(=O)oc3ccc(Cl)cc32)no1`, the “hERG current change (%, negative = inhibition) at 10uM” value was found to be 22.2%. `Cc1cc(Cl)cc(C)c1OCCCCN1CCOCC1`: the “hERG current change (%, negative = inhibition) at 10uM” value is reported as -34.3%. In the case of `O=C(O)C1=NN(c2ccccc2)C(=O)CC1`, the “hERG current change (%, negative = inhibition) at 10uM” value is 19.6%. Take `COCCCNc1nc2c(c(=O)n(Cc3ccc(Cl)cc3)c(=O)n2C)n1C`: the “hERG current change (%, negative = inhibition) at 10uM” value came to 0.305%. For `Cn1cc(C(=O)Nc2ccc(C#N)cc2)c2ccccc2c1=O` the value was -14.2%; for `CCOc1ccc2nc(NC3=NC(c4ccc(OC)cc4)CC(=O)N3)nc(C)c2c1` (stereo not shown), 4.52%. For `Cc1ccc(S(=O)(=O)N2CCCC2C(=O)NCCc2nc3ccccc3[nH]2)cc1` (stereo not shown) the value was -12.7%; for `CCOC(=O)CSC(=S)NC(=O)c1ccc(OC)cc1`, 16.4%. The value for `Cc1c(Cl)cccc1NC(=O)CNC(=O)c1ccc(F)cc1` was 27.4%.
